The other results are listed elsewhere or left out. Most values come without repeats; read them as rough.
Columns and labels:
Assay in all cases: cell viability relative to vehicle (% of vehicle); basal-like triple-negative breast cancer lines; higher = less cytotoxic
Conditions in all cases: 10 µM; 72 h
[1] = test system: HCC-1143
[2] = test system: HCC-1187
[3] = test system: MDA-468
[4] = test system: SUM-149
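Also: stably firefly luciferase-GFP labeled cells in 96-well plates, viability read as luciferase photon flux after d-luciferin addition, treated wells normalized to vehicle wells, single-dose high-throughput screen.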

Compound	cell viability [1]	cell viability [2]	cell viability [3]	cell viability [4]
CN(Cc1ccc(C(C)(C)C)cc1)Cc1cccc2ccccc12.Cl [Butenafine HCl]	72.3	93.6	114	108
Cc1ccc(F)c(NC(=O)Nc2ccc(-c3cccc4[nH]nc(N)c34)cc2)c1 [Linifanib (ABT-869)]	99.5	64.2	88.6	130
NC(=O)Cc1cccc(C(=O)c2ccccc2)c1N [Nepafenac]	99.7	104	105	101
O=C(O)c1cc(-c2ccccc2)nc2ccccc12 [Cinchophen]	114	126	139	103
CCOc1ccc(NC(C)=O)cc1 [Phenacetin]	112	98.7	112	136
CC(=O)C1(O)Cc2c(O)c3c(c(O)c2C(OC2CC(N)C(O)C(C)O2)C1)C(=O)c1ccccc1C3=O.Cl (centres undefined) [Idarubicin HCl]	27.1	21.9	26.4	31.4
CC(C)(C)N.CCCC(NC(C)C(=O)N1C(C(=O)O)CC2CCCCC21)C(=O)OCC (centres undefined) [Perindopril Erbumine]	78.2	114	91.5	84.2
Nc1cccc2c1CN(C1CCC(=O)NC1=O)C2=O (centres undefined) [Lenalidomide (CC-5013)]	89.9	62.3	79.4	124
CC(C=CC1=C(C)CCCC1(C)C)=CC=CC(C)=CC(=O)O [Tretinoin (Aberela)]	131	105	145	133
CNCC(O)c1cccc(O)c1.Cl (centres undefined) [Phenylephrine HCl]	81.5	101	140	104
CCN(CC)CCOc1ccc(C(=C(Cl)c2ccccc2)c2ccccc2)cc1.O=C(O)CC(O)(CC(=O)O)C(=O)O [Clomiphene citrate]	90.1	108	102	92.4
Cl.O=c1n(CCCN2CCN(c3cccc(Cl)c3)CC2)nc2ccccn12 [Trazodone HCl]	110	108	98.7	120
COc1c(N2CCNC(C)C2)c(F)cc2c(=O)c(C(=O)O)cn(C3CC3)c12 (centres undefined) [Gatifloxacin]	101	99.4	98.8	94.8
CCC(=C(CC)c1ccc(O)cc1)c1ccc(O)cc1 [Diethylstilbestrol]	71.1	85.8	51.3	119
CCOc1nc2cccc(C(=O)O)c2n1Cc1ccc(-c2ccccc2-c2nc(=O)o[nH]2)cc1 [Azilsartan]	97.7	95.7	112	110
NC(=O)N1c2ccccc2C=Cc2ccccc21 [Carbamazepine]	86	82.3	97.1	123
O=C(O)[C@H](O)[C@@H](O)C(=O)O.c1cnc2cc3c(cc2n1)C1CNC[C@@H]3C1 [Varenicline Tartrate]	108	78.3	105	135
CCOC(=O)c1c(CSc2ccccc2)n(C)c2cc(Br)c(O)c(CN(C)C)c12.Cl [Arbidol HCl]	116	131	108	98.6
C=C1C(=CC=C2CCCC3(C)C2CCC3C(C)C=CC(C)C(C)C)CC(O)CC1O (centres undefined) [Doxercalciferol]	94.3	186	83	78.4
O=c1c(-c2ccc(O)cc2)coc2cc(O)ccc12 [Daidzein]	173	119	165	171
Cl.O=C1c2cccc3c2C(CCC3)CN1C1CN2CCC1CC2 (centres undefined) [Palonosetron HCl]	89.9	84.1	73	77.4
CCCC(=O)Nc1ccc(OCC(O)CNC(C)C)c(C(C)=O)c1.Cl (centres undefined) [Acebutolol HCl]	97.8	112	102	92.4
CC(CCC(=O)O)C1CCC2C3C(O)CC4CC(O)CCC4(C)C3CC(O)C12C (centres undefined) [Cholic acid]	78.6	70.2	119	125
CC1=NN(c2ccccc2)C(=O)C1 [Edaravone]	83	122	43.1	112
CC1C(NC(=O)C(=NOC(C)(C)C(=O)O)c2csc(N)n2)C(=O)N1S(=O)(=O)O (centres undefined) [Aztreonam]	94.3	106	88.2	116
CCN1CCN(C(=O)NC(C(=O)NC2C(=O)N3C2SC(C)(C)C3C(=O)[O-])c2ccccc2)C(=O)C1=O.[Na+] (centres undefined) [Piperacillin Sodium]	99.8	99.4	108	94.2

Compound	cell viability [1]	cell viability [2]	cell viability [3]	cell viability [4]
CCOC(=O)C(CCc1ccccc1)NC1CSC(c2cccs2)CN(CC(=O)O)C1=O.Cl (centres undefined) [Temocapril HCl]	97.4	92.3	104	110
CCOc1nc2cccc(C(=O)O)c2n1Cc1ccc(-c2ccccc2-c2nn[nH]n2)cc1 [Candesartan]	95.6	130	92.8	123
CN(Cc1cnc2nc(N)nc(N)c2n1)c1ccc(C(=O)NC(CCC(=O)O)C(=O)O)cc1 (centres undefined) [Methotrexate]	84	73.8	56.3	128
CC(NCCCc1cccc(C(F)(F)F)c1)c1cccc2ccccc12 (centres undefined) [Cinacalcet]	109	71.1	88.8	90.6
Nc1ccn(C2CSC(CO)O2)c(=O)n1 (centres undefined) [Lamivudine]	111	91.6	109	105
Cl.O.O=C1Cc2cc(CCN3CCN(c4nsc5ccccc45)CC3)c(Cl)cc2N1 [Ziprasidone hydrochloride monohydrate]	104	101	91.4	116
CO/C(O)=N/[C@H](C(=O)N1CC2(CC2)C[C@H]1c1ncc(-c2ccc3c(c2)C(F)(F)c2cc(-c4ccc5nc([C@@H]6[C@H]7CC[C@H](C7)N6C(=O)[C@@H](/N=C(\O)OC)C(C)C)[nH]c5c4)ccc2-3)[nH]1)C(C)C [Ledipasvir]	112	112	104	148
CCCC(=O)OCOC(=O)C1=C(C)NC(C)=C(C(=O)OC)C1c1cccc(Cl)c1Cl (centres undefined) [Clevidipine Butyrate]	85	83.7	101	108
CCC1OC(=O)C(C)C(OC2CC(C)(OC)C(O)C(C)O2)C(C)C(OC2OC(C)CC(N(C)C)C2O)C(C)(O)CC(C)CN(C)C(C)C(O)C1(C)O.O.O (centres undefined) [Azithromycin Dihydrate]	105	102	96.7	114
CNCCC(Oc1ccccc1C)c1ccccc1.Cl (centres undefined) [Atomoxetine HCl]	109	121	111	117
CC(=O)O[C@@]12CO[C@@H]1C[C@H](O)[C@@]1(C)C(=O)[C@H](O)C3=C(C)[C@@H](OC(=O)[C@H](O)[C@@H](NC(=O)OC(C)(C)C)c4ccccc4)C[C@@](O)([C@@H](OC(=O)c4ccccc4)[C@H]21)C3(C)C [Docetaxel]	83.9	22.5	82.6	138
Cc1nnc(NS(=O)(=O)c2ccc(N)cc2)s1 [Sulfamethizole]	78.2	83.6	100	96.5
Nc1nc(=O)c2ncn(COC(CO)CO)c2[nH]1 [Ganciclovir]	89.9	116	149	159
CCCCC(=O)OC1(C(=O)CO)C(C)CC2C3CCC4=CC(=O)C=CC4(C)C3(F)C(O)CC21C (centres undefined) [Betamethasone Valerate]	83.7	110	156	159
CC1CC2C3CC(F)C4=CC(=O)C=CC4(C)C3(F)C(O)CC2(C)C1(O)C(=O)CO (centres undefined) [Flumethasone]	77.6	104	163	186
CCCCCN(C)CCC(O)(P(=O)([O-])O)P(=O)(O)O.O.[Na+] [Ibandronate sodium]	68.2	87.6	105	93.5
COc1cccc2c1C(=O)c1c(O)c3c(c(O)c1C2=O)CC(O)(C(=O)CO)CC3OC1CC(N)C(O)C(C)O1 (centres undefined) [Doxorubicin]	48.2	28	32.8	48.1
CNC(=O)c1cc(Oc2ccc(NC(=O)Nc3ccc(Cl)c(C(F)(F)F)c3)cc2)ccn1.Cc1ccc(S(=O)(=O)O)cc1 [Sorafenib Tosylate]	82.4	100	93.4	103
COc1ccccc1N1CCN(CCCNc2cc(=O)n(C)c(=O)n2C)CC1.Cl [Urapidil HCl]	94.8	98.9	95.4	66.3
O=c1cc[nH]c(=S)[nH]1 [2-Thiouracil]	76.3	85.4	109	119
CC(c1cc2ccccc2s1)N(O)C(N)=O (centres undefined) [Zileuton]	82.1	123	95.5	104
COc1ccc2c(c1)C(=O)N(CCc1ccc(S(=O)(=O)NC(=O)NC3CCCCC3)cc1)C(=O)C2(C)C [Gliquidone]	110	107	105	113
COc1cc(Nc2ncc(F)c(Nc3ccc4c(n3)N(COP(=O)([O-])[O-])C(=O)C(C)(C)O4)n2)cc(OC)c1OC.[Na+].[Na+] [R788 disodium]	41.3	52.2	27.8	39.3
Cc1cccc(-c2nn3c(c2-c2ccnc4ccc(C(N)=O)cc24)CCC3)n1	82.1	127	112	78.7
CCCCc1nc(Cl)c(CO)n1Cc1ccc(-c2ccccc2-c2nnn[n-]2)cc1.[K+] [Losartan Potassium (DuP 753)]	85.3	89.4	78.9	109

Reference: the supplement of paper PMC8512760
